# Measured values from the RNAGym collection of RNA variant scans (doi:10.7554/elife.90254).
# Read counts are not given, so values of variants with three or more changes are uncertain.
# B1: LINE1-mini (parent)
# chain: GGCAGAGCUCAACACAGCGUGGCAAAGUGGCUGUGGCUAGACUGCC
# Variants of: B1
# Assay: self-cleavage, relative activity (ratio to wild type); higher = more cleavage; in vitro, sequencing; the parent is a self-cleaving ribozyme
row,Variant,self-cleavage
1,C10U A14G G27U C37A,0.03
2,C10A G29C U32G G44U,0.02
3,C10G A14C C23A A25U G29A C45A,0.01
4,C10G A41U G44U C45G,0.01
5,C10G C15G U34C U43G C46U,0.01
6,C10A G17U G30C U34A C37U,0
7,C10U A14U C18A G33C C42A,0.03
8,C10U A16C A25U C37U C42G,0.04
9,C10G A16U G19C G21C U28G A39G C42G G44C,0.01
10,C10G A16U U20C G33U U34A C42G,0
11,C10G G21U C23G,0.13
12,C10A G17A G21C,0.01
13,C10A G35U G36A,0.02
14,C10G G19A U28A G40C,0.01
15,C10A C15G C23U C46A,0
16,C10A C18A A24C G30U,0.04
17,C10A G21C A26U G30U,0.02
18,C10G G29C U34G G35U,0.02
19,C10G G36A C37A,0
20,C10G C13A G17C G19A,0.01
21,C10A C13U U43A,0.02

row,Variant,self-cleavage
1,C10A C13U G40U,0.03
2,C10A C13A C15A U34G G36U,0.04
3,C10G A12G C13A C15A,0.01
4,C10G A11C A16U G19A U20C G30A U38G,0
5,C10A C15A C18G C23G G35A,0.01
6,C10G A11U C23U C42A,0.01
7,C10A G19U G30U G36C C37A,0.01
8,C10G U34C A39G,0.03
9,C10G G17C C18U G19U C31G,0
10,C10G U20A U28A G44A,0.02
11,C10G G21A C23A G30C G36C C37A,0.01
12,C10A G29U C31U A41C,0.01
13,C10A C15U A24G A26G G33C G35C,0.02
14,C10U A41U G44U,0.05
15,C10A C18U G35C,0.02
16,C10G A11C G27A U28G C45U,0.01
17,C10A G22U A24C A25G A26U U38G U43A,0.01
18,C10A C23U C31U,0.1
19,C10A G19C U20C G27C C31A G36C G40U,0
20,C10A C18G C23G U34C G35C C42G,0
21,C10U A11G U43C,0.01

row,Variant,self-cleavage
1,C10G G29A A39U A41C,0
2,C10U A16U C31G U32C,0.03
3,C10A G21U C42G,0.01
4,C10A G17A U28G,0.04
5,C10A G30A A41C U43G,0.33
6,C10U A12C A14G G36U,0.03
7,C10U A11C A14C A26G,0.04
8,C10A C18U C23A G33A,0
9,C10A C13A C18G A24C,0.05
10,C10A G17A G19U U32G A39U,0.13
11,C10G C15A G35U,0.02
12,C10G G30U C45U,0.05
13,C10G C23U G30C A41C,0.01
14,C10G G33C G40A C45U,0.01
15,C10G C13U G29U,0.03
16,C10A G17C A25U G33C,0.03
17,C10G A26C C45G,0.01
18,C10A G22A G36U C37A U38G,0
19,C10A C23U A39U,0.33
20,C10A C15G G17A G33A U38A G40A,0.01
21,C10A C13A G17U A24C,0.01

row,Variant,self-cleavage
1,C10A U20G U34G,0.02
2,C10G G17A G27C G29A G30C C37A,0.01
3,C10G G33U C46G,0
4,C10G A26C C31U A39G G44U,0.01
5,C10A G27A A41U,0.01
6,C10G A12G C31A,0.01
7,C10G C13A G33U A41C C42U,0.01
8,C10G A25C U38C,0.02
9,C10A G36A U38G,0.02
10,C10U A12U C23G,0.04
11,C10U A11U U28G G36C,0.03
12,C10A U34A C45G,0.03
13,C10A C18U G19C A25U G27A G35U G40U C42G,0.02
14,C10U A12C C45A C46A,0.02
15,C10A U20G G21C C23U A26U G40U,0.01
16,C10G U20C G40C G44U,0.01
17,C10A G22C G27A G30A,0.02
18,C10A G30C U34C,0.02
19,C10A U20A A26U,0.05
20,C10A C13A A39C A41G C45U C46U,0
